Screen size: about 390,000 compounds; about 17,000 (4.4%) were called active. This list was built around the results that the source calls inconclusive (neither active nor inactive); the mix of calls is not that of the screen. Calls come from the whole dose curve; as a rule, active = well fitted inhibition curve with a large enough effect; inconclusive = small, poorly fitted or top-dose-only effect; inactive = no such curve, though single readings can be large or run the other way. Potencies of inconclusive entries are doubtful fits and often do not repeat.
Biological target: Lysine-specific demethylase 4A (Homo sapiens) (UniProt O75164)
Assay: qHTS Assay for Inhibitors of JMJD2A-Tudor Domain; note: nearly all actives have a fitted effect of over 50% in size
Details: AlphaScreen JMJD2A-Tudor / H3K4me3 peptide binding; activity change, negative = inhibition: at 114 µM (top of the series)
% is set by controls: 0 for no effect and ±100 for the full control effect; potency is the fitted concentration of half-maximal effect; tags give direction and shape of the fitted curve.

Chain of UniProt O75164 (O75164 whole entry, looked up, the tested form may be a part): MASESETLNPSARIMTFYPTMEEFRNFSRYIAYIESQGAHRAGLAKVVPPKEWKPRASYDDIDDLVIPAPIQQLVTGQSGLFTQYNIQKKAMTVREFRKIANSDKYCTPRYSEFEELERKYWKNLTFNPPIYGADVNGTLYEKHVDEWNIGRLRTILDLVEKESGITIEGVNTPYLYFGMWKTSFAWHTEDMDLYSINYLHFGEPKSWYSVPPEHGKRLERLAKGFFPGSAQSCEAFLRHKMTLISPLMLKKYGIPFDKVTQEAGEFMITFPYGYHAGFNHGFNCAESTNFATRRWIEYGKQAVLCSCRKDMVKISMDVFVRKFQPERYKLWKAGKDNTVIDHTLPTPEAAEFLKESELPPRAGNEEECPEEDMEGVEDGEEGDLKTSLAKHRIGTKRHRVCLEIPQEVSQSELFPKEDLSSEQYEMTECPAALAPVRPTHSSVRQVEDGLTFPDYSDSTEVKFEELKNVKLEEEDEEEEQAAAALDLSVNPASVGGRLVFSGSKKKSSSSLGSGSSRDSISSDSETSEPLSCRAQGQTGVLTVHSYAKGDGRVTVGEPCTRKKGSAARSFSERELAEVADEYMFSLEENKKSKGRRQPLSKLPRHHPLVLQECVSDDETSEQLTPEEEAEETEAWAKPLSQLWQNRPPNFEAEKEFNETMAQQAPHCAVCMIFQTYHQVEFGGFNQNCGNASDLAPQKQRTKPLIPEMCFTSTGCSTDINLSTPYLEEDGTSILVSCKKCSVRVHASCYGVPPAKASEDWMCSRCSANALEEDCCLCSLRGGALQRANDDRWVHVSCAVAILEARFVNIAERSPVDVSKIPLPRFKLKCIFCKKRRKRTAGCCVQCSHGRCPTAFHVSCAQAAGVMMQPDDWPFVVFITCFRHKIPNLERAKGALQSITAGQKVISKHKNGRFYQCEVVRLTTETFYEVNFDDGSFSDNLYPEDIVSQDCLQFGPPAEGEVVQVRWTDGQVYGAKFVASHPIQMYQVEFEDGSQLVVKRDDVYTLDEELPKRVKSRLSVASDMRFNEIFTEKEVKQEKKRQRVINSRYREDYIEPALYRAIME

Potency, inconclusive:
Cc1nc(N)sc1-c1csc(Nc2ccc(S(N)(=O)=O)cc2)n1 56.2 µM [inhibitor, partial curve]
Cc1ccc(CNC(=O)CCCc2c[nH]c3ccccc23)cc1 50.1 µM [inhibitor, partial curve]
COc1ccc(OC)c(NC(=S)N2CCC(C(O)(c3ccccc3)c3ccccc3)CC2)c1 79.4 µM [inhibitor, partial curve]
C(=C\c1ccccc1)/C=N/Nc1nc2ccccc2[nH]1 8.91 µM [inhibitor, partial curve]
O=S(=O)(Nc1ncccn1)c1ccccc1 39.8 µM [inhibitor, single point]
CCCCC(=O)c1c(O)c2ccccc2oc1=O 89.1 µM [inhibitor, single point]
COc1ccc(CCn2cc3c(c2-c2ccccc2Br)c(=O)n(C)c(=O)n3C)cc1OC 63.1 µM [inhibitor, partial curve, poor fit]
COc1cccc(C(=O)NCC(=O)N/N=C/c2c(C)[nH]c3ccccc23)c1 50.1 µM [inhibitor, partial curve]
COc1cccc(-c2nc(SCC(=O)Nc3ccc4c(c3)OCO4)c(-c3ccccc3)[nH]2)c1 25.1 µM [inhibitor, full curve]
Cc1cc(NC(=O)N2CC=C(c3c[nH]c4ccccc34)CC2)ccc1Br 56.2 µM [inhibitor, partial curve]
Cc1[nH][nH]c(=O)c1C(c1ccc(-c2ccc(F)cc2)o1)c1c(C)[nH][nH]c1=O 56.2 µM [inhibitor, partial curve]
CC(C)c1ccc2c(c1)C1Cc3ccccc3C1N2 (configuration not stated) 56.2 µM [inhibitor, partial curve]
COCc1cc(=O)[nH]c(/N=C(\N)Nc2cccc(C)c2)n1 3.16 µM [inhibitor, full curve]
Cc1noc(NS(=O)(=O)c2ccc(NC(=O)c3oc4ccc(Cl)cc4c3C)cc2)c1C 63.1 µM [inhibitor, partial curve, poor fit]
COc1ccc(N2CCN(C(CNC(=O)C3CCCCC3)c3cccnc3)CC2)cc1 (configuration not stated) 79.4 µM [inhibitor, single point]
COc1ccc(N2CCN(c3nc4ccccc4n3CC(=O)c3ccccc3)CC2)cc1 39.8 µM [inhibitor, single point]
Cc1ccccc1-n1nnnc1SC(C)C(=O)Nc1ccc(N2CCN(C)CC2)cc1 (configuration not stated) 44.7 µM [inhibitor, partial curve]
Cc1ccc(-c2nc(C(=O)NCCCN3CCOCC3)cc3c2[nH]c2ccccc23)cc1 50.1 µM [inhibitor, partial curve]
COC(=O)c1ccc(C)c(NC(=O)c2c(-c3ccccc3)noc2C)c1 89.1 µM [inhibitor, single point]
NC(=O)COC(=O)c1ccc(Cl)c(S(=O)(=O)N(Cc2ccccc2)c2ccc(Cl)cc2)c1 17.8 µM [inhibitor, full curve, poor fit]
CC(C)C(NS(=O)(=O)c1ccc2c(c1)OCCCO2)C(=O)O (configuration not stated) 17.8 µM [inhibitor, partial curve]
O=C(/C(=C/c1ccncc1)n1ccnc1)c1ccc(Cl)cc1Cl 89.1 µM [inhibitor, partial curve]
CCN(c1ccc(NC(=O)CSCc2c(C)noc2C)cc1)C(C)C 39.8 µM [inhibitor, partial curve]
CC(C)(C)c1cc(C(=S)N2CCCC2)cc(C(C)(C)C)c1O 79.4 µM [inhibitor, partial curve]
CCC1=Nc2cc(C(=O)NCCN3CCCC3)ccc2Sc2ccc(C)cc21 50.1 µM [inhibitor, partial curve, poor fit]
CSc1ccc(/C=N/N2CCN(C)CC2)cc1 89.1 µM [inhibitor, partial curve]
CCSC1=C(C#N)C2(CCCC2)C(C#N)=C(N)N1 3.16 µM [inhibitor, partial curve]
Cn1c(Cc2csc(N)n2)nnc1SCC(=O)NCc1ccccc1 79.4 µM [inhibitor, single point]
Cc1ccccc1C(=O)NCC(c1ccc(N(C)C)cc1)N1CCCC1 (configuration not stated) 79.4 µM [inhibitor, partial curve]
O=C1C(=Cc2ccco2)C(=O)c2ccccc21 28.2 µM [inhibitor, full curve]
O=C(Oc1ccccc1Cl)c1ccccc1P(=O)(O)O 100 µM [inhibitor, single point]
O=C(C1CCCN(S(=O)(=O)c2ccc(Br)cc2)C1)N1CCN(Cc2ccccc2)CC1 (configuration not stated) 63.1 µM [inhibitor, partial curve, poor fit]
C[C@H](CO)N1C[C@H](C)[C@@H](CN(C)S(=O)(=O)c2ccc(F)cc2)Oc2ccc(NC(=O)Nc3ccc4c(c3)OCO4)cc2C1=O 39.8 µM [inhibitor, partial curve]
O=C(CSc1nnc(-c2ccc(Cl)cc2)n1Cc1ccco1)c1cccs1 50.1 µM [inhibitor, partial curve]
C=CCn1c(N)c(C(=O)NCCC2=CCCCC2)sc1=S 39.8 µM [inhibitor, partial curve]
O=S(=O)(Nn1c(O)c(C=C2N=c3ccccc3=N2)sc1=S)c1ccccc1 20 µM [inhibitor, full curve]
Cc1cc(C(=O)CSc2nnc(-c3ccncc3)n2-c2ccccc2)c(C)n1C 39.8 µM [inhibitor, partial curve]
O=C1C(=O)N(CCCn2ccnc2)C(c2cccc(Br)c2)/C1=C(\O)c1ccc2c(c1)OCCO2 (configuration not stated) 89.1 µM [inhibitor, partial curve]

Potency, inactive:
CC(=O)N1c2ccc(S(=O)(=O)N3CCCC3)cc2CC1C(=O)NCc1ccccc1F (configuration not stated)
COc1ccccc1Oc1nc2c(c(=O)n(C)c(=O)n2C)n1Cc1cccc(Br)c1
CC(=O)Nc1ccc(S(=O)(=O)Nc2cccc(-c3ccc(N4CCC(C)CC4)nn3)c2)cc1
COc1ccc2nc(NC(=O)CSc3nc(SC)ns3)sc2c1
O=C(Cc1ccccc1F)Nc1cc(S(=O)(=O)N2CCOCC2)ccc1N1CCCC1
COCc1c(C(=O)NC(C)c2ccc(S(N)(=O)=O)cc2)oc2ccccc12 (configuration not stated)
CCCc1noc(-c2ccc(N3CCCCC3)c([N+](=O)[O-])c2)n1
CCOC(=O)c1sc2ccccc2c1S(=O)(=O)Nc1c(C)cccc1C
CCN1CCN(C(=O)c2ccc(N3CC4CC(C3)c3cccc(=O)n3C4)c([N+](=O)[O-])c2)CC1 (configuration not stated)
C=CCNc1nc(-c2c(C)nc3ncccn23)cs1
CCN(CC)c1ccc(C(=O)OCC(=O)Nc2ccc3[nH]c(=O)[nH]c3c2)cc1
C=CCn1c(SCC(=O)Nc2ccc(C(=O)O)cc2)nc2scc(-c3ccccc3)c2c1=O
CC(C)c1cnc2c(c1SCc1ccc([N+](=O)[O-])cc1)c(=O)n(C)c(=O)n2C
O=C(Nc1cccc([N+](=O)[O-])c1)N1CCN(c2ccccc2)CC1
Cc1noc(Cn2c(=O)c3cc4c(cc3n(CC(=O)Nc3ccc(C(C)C)cc3)c2=O)OCO4)n1
CC(C)NC(=O)Cc1csc2nc(-c3ccccc3)cn12
Cc1nn(C)cc1C1Nc2ccccc2C(=O)N1O (configuration not stated)

Potency, active:
Cn1cc(C(c2ccccc2OCC(=O)O)c2cn(C)c3ccccc23)c2ccccc21 14.1 µM
Cc1ccc(S(=O)(=O)N2[C@@H](c3ccc(C(C)(C)C)cc3)C(C(=O)O)=CC[C@H]2c2ccc(C(C)C)cc2)cc1 79.4 µM
COc1ccccc1Nc1nc(N)nc(CN2CCN(c3ccccc3)CC2)n1 56.2 µM
CCc1nc2sc3ccccc3c(=O)c2c(=O)n1Cc1ccco1 56.2 µM
c1ccc(Nc2nc(NCc3ccco3)c3ccccc3n2)cc1 50.1 µM
CCSC(=O)N=Nc1ccc(O)cc1 56.2 µM
CC(C)(C)c1ccc(OCCCNCc2ccccc2)cc1 3.55 µM
C[C@@H]1Cc2c(O)c(O)cc(O)c2C(=O)O1 56.2 µM
CCCC(=O)NC(c1ccccc1)c1ccc2cccnc2c1O (configuration not stated) 44.7 µM
CC(C)CC(=O)N1CCN(Cc2ccc(C(F)(F)F)cc2)CC1 28.2 µM
CCOc1ccc(NC(=O)N(CCN2CCOCC2)Cc2ccc3c(c2)CCCN3CC)cc1 56.2 µM
O=C1CC(c2ccc(O)c(O)c2)Oc2c1ccc(O)c2O (configuration not stated) 8.91 µM
COc1cnc(-c2ccccn2)nc1NC(C)C 22.4 µM
C=CCc1ccc(OCCOCCN(C)C)c(OC)c1 1.58 µM
Nc1nc(=S)n(-c2ccccc2)[nH]1 3.55 µM
Fc1ccccc1Nc1n[nH]c(=S)s1 2.82 µM

Activity change, negative = inhibition, inactive:
Cc1ccc(S(=O)(=O)NC(=O)NCCCCNC(=O)NS(=O)(=O)c2ccc(C)cc2)cc1 -8.4% [at 11.4 µM]

Source: PubChem BioAssay AID504339 (National Center for Advancing Translational Sciences (NCATS), 2011)
